# Reference: publication PMC9333452
# The chains behind the UniProt entries cited, without tags or fusion partners.
# UniProt Q96SN8: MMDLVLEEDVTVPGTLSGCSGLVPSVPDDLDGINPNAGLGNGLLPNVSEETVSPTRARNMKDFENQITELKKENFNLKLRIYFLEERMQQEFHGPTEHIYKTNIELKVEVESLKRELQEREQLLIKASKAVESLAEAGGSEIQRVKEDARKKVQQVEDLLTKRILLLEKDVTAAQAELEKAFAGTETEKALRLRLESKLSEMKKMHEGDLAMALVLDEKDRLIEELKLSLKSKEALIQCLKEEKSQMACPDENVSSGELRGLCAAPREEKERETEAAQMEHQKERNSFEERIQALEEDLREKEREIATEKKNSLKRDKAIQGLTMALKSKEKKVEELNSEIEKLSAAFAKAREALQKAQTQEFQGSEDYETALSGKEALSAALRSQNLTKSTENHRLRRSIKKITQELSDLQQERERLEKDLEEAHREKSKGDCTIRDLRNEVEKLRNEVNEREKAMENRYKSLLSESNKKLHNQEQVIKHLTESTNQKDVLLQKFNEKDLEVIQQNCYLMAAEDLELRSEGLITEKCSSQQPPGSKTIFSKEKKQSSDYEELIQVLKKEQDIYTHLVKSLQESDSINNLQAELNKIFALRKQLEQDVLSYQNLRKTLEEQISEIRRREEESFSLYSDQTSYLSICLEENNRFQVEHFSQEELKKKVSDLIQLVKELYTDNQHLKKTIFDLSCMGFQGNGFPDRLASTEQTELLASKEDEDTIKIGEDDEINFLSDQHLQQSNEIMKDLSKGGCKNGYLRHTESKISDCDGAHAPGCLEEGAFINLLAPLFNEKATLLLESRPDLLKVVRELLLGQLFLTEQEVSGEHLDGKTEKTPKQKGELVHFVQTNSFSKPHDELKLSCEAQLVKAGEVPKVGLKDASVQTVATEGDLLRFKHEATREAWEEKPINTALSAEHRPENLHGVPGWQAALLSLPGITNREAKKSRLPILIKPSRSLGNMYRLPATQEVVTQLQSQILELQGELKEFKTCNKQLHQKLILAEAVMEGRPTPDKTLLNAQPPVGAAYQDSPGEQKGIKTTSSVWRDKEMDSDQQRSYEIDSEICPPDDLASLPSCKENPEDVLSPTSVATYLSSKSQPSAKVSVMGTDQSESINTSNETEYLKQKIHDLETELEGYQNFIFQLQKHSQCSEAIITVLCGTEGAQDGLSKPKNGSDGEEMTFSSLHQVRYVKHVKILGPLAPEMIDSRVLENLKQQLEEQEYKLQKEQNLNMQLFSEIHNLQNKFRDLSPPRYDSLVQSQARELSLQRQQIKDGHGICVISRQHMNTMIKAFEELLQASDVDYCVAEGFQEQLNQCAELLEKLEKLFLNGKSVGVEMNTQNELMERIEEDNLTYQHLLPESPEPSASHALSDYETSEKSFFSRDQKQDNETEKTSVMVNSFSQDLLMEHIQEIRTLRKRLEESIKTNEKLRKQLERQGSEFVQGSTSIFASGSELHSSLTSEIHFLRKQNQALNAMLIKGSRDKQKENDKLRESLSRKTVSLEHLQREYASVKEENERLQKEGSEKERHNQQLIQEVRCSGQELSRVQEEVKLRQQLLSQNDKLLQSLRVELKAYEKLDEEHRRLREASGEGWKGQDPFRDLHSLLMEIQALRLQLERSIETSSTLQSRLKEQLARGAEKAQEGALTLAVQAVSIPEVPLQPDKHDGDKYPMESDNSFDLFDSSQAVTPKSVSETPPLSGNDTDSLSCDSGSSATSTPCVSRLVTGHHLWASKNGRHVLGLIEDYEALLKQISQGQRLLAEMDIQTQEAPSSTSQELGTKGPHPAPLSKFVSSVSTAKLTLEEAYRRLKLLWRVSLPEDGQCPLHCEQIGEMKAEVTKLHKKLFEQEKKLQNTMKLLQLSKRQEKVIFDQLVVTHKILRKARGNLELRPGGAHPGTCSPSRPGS
# UniProt Q8TEP8: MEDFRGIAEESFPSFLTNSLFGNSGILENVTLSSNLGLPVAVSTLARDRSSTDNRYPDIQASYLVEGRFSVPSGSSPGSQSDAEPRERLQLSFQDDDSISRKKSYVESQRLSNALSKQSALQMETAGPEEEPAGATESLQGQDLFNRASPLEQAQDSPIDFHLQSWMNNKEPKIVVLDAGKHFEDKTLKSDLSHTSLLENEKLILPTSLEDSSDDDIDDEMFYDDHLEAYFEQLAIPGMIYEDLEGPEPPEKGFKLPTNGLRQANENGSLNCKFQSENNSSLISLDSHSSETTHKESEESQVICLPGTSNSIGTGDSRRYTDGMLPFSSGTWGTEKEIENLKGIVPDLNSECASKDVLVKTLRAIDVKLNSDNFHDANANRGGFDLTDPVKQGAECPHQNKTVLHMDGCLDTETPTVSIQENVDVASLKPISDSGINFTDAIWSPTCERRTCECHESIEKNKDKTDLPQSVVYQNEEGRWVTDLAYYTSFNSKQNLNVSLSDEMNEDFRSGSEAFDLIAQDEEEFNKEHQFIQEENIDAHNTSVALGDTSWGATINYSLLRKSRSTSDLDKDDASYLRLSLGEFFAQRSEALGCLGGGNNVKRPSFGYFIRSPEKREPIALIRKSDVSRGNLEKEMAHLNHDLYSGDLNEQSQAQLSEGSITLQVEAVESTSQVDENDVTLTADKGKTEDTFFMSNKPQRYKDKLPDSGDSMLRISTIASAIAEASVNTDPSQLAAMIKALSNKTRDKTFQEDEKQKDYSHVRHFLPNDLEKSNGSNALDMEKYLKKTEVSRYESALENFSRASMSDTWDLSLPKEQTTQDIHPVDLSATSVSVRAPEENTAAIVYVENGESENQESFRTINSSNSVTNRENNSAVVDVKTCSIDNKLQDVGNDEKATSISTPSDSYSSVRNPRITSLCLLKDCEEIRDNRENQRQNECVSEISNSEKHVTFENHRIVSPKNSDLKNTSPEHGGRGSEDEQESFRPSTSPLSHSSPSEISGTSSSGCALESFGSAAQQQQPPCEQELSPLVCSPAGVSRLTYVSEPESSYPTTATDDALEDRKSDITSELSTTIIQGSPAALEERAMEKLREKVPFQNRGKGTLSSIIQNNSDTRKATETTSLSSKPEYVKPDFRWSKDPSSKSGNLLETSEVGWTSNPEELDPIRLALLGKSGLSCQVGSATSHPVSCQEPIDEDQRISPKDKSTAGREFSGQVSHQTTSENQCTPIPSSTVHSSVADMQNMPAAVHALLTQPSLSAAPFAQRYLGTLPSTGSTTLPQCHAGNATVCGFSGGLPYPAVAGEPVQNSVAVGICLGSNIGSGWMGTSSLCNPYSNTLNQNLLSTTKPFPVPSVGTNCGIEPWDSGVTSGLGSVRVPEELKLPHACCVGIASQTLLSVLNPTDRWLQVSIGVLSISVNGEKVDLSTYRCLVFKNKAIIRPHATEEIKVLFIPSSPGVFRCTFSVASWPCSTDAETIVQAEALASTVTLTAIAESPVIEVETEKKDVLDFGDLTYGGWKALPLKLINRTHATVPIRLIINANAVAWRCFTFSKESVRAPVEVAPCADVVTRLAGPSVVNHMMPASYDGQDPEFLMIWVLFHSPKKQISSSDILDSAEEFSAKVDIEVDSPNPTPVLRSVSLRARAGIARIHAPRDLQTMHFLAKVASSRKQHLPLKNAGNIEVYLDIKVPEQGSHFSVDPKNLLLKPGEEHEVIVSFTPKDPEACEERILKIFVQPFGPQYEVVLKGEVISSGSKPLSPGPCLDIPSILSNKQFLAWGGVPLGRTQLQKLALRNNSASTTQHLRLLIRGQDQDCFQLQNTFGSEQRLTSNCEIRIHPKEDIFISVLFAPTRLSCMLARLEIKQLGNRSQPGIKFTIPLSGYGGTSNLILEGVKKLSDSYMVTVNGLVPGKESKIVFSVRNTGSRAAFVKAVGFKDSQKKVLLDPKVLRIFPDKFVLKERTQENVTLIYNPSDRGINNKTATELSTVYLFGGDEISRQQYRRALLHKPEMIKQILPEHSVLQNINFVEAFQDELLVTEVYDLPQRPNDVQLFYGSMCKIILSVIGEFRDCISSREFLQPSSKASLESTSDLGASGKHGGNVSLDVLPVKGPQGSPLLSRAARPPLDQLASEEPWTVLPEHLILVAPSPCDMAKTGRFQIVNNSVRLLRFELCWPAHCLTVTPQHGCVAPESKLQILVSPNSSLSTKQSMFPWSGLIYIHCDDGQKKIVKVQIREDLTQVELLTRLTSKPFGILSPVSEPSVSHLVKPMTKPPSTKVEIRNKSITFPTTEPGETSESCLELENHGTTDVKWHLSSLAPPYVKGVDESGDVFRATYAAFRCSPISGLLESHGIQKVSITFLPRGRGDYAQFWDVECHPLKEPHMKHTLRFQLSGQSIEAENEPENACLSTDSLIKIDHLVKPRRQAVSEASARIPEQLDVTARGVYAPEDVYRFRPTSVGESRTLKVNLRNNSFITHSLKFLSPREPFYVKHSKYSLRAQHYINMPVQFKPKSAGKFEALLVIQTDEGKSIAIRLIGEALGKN
# UniProt P23258: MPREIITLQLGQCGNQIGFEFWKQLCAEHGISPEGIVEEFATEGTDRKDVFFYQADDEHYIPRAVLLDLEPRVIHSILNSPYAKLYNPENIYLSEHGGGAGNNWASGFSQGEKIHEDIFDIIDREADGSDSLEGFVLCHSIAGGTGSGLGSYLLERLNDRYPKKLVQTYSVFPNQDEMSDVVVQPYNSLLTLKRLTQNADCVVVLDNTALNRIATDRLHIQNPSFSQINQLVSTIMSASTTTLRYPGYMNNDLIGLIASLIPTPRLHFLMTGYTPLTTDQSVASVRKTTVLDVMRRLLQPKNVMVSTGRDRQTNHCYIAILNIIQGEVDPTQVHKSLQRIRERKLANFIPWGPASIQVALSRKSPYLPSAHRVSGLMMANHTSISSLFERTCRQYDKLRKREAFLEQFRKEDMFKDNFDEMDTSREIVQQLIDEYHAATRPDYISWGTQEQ
# UniProt O94986: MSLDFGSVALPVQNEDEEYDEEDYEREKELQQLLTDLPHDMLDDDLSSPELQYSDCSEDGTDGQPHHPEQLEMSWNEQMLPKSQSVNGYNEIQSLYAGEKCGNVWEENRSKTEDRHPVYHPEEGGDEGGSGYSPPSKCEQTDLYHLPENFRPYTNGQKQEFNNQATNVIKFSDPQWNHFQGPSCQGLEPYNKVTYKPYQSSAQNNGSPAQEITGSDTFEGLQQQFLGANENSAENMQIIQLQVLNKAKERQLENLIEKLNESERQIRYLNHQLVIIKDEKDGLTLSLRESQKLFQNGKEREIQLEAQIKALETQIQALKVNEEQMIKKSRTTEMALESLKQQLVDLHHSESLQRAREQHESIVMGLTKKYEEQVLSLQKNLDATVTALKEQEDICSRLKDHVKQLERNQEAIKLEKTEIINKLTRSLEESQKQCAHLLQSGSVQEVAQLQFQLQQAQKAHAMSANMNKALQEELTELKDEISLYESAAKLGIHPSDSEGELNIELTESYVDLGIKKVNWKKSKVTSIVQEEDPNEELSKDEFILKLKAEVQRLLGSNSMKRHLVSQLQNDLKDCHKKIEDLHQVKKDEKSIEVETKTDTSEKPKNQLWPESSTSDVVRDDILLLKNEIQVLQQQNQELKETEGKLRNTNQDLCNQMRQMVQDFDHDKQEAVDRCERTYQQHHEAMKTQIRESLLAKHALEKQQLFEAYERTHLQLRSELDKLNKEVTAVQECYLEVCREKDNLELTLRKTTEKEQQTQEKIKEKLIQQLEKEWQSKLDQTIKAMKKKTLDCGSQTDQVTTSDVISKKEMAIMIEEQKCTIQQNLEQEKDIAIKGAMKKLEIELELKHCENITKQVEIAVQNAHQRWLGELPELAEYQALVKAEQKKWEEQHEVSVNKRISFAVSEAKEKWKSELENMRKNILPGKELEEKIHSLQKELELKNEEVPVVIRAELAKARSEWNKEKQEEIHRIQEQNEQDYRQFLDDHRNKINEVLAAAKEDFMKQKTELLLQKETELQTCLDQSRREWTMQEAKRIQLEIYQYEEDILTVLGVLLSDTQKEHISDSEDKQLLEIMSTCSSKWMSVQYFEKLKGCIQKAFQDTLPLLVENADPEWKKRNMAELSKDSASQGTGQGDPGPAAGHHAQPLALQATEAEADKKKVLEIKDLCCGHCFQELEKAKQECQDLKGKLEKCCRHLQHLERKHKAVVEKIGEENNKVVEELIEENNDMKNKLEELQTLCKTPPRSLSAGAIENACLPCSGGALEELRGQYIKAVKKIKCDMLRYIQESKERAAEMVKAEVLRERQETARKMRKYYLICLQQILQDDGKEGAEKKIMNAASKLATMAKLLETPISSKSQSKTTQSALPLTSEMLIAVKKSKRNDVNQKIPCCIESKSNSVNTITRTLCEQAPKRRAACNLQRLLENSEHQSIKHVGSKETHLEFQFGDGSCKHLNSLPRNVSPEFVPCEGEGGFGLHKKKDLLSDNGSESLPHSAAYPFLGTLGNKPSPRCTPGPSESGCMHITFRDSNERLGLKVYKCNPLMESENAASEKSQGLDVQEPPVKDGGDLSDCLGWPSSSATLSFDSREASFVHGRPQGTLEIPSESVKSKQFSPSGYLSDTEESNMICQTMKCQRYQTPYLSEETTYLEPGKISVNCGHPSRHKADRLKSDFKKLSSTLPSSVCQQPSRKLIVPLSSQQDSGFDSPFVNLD
# These are yes or no findings as the source states them, for the method shown. Binding seen in cells or lysates may run through a third protein. Some entries that bind do so weakly or less than the wild type. Where a sequence is shown, tags or fusion partners need not be part of it.
# T1: Flag-miniTurbo-CCDC66 (UniProt A2RUB6)
# T1 sequence: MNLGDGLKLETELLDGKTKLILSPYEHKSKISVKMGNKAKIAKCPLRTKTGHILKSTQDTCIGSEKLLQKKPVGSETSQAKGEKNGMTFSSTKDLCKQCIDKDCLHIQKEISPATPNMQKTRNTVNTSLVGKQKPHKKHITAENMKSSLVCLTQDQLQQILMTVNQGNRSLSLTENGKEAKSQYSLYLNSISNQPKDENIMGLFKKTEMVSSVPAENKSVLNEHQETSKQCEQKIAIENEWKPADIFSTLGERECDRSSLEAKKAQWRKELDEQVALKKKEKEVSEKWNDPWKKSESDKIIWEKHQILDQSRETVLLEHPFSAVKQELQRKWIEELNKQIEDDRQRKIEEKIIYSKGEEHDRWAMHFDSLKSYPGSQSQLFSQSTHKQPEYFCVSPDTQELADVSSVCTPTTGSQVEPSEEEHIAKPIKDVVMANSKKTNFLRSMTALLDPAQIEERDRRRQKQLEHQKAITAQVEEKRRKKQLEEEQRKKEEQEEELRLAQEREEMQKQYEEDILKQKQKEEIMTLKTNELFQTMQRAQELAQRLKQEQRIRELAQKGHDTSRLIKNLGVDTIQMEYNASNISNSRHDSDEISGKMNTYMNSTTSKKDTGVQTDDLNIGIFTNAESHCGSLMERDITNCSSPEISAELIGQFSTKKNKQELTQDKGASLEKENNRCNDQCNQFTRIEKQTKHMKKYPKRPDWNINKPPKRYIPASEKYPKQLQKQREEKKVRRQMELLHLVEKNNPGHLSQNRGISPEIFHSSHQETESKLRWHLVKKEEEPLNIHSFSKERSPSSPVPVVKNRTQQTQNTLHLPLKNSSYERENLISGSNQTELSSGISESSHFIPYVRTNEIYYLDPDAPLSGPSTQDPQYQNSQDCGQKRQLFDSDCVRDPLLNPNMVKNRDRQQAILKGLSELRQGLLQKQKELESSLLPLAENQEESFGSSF
# Target: T1, Flag-miniTurbo-CCDC66
# Assay: co-IP; HEK293T cells co-transfected; lysed about 48 h later in 50 mM HEPES pH 8, 100 mM KCl, 2 mM EDTA, 10% glycerol, 0.1% NP-40; anti-FLAG M2 agarose beads overnight at 4°C; input and eluates immunoblotted
row,Molecule,binding
1,myc-BirA*-CDK5RAP2 (from UniProt Q96SN8 1-1893),binds
2,myc-BirA*-Cep192 (from UniProt Q8TEP8 1-2537),binds
3,"GFP-Cep55 (protein, UniProt Q53EZ4 1-464) MSSRSTKDLIKSKWGSKPSNSKSETTLEKLKGEIAHLKTSVDEITSGKGKLTDKERHRLLEKIRVLEAEKEKNAYQLTEKDKEIQRLRDQLKARYSTTTLLEQLEETTREGERREQVLKALSEEKDVLKQQLSAATSRIAELESKTNTLRLSQTVAPNCFNSSINNIHEMEIQLKDALEKNQQWLVYDQQREVYVKGLLAKIFELEKKTETAAHSLPQQTKKPESEGYLQEEKQKCYNDLLASAKKDLEVERQTITQLSFELSEFRRKYEETQKEVHNLNQLLYSQRRADVQHLEDDRHKTEKIQKLREENDIARGKLEEEKKRSEELLSQVQFLYTSLLKQQEEQTRVALLEQQMQACTLDFENEKLDRQHVQHQLHVILKELRKARNQITQLESLKQLHEFAITEPLVTFQGETENREKVAASPKSPTAALNESLVECPKCNIQYPATEHRDLLVHVEYCSK",no binding

# The remaining lines, values ahead:
row,binding,Molecule
1,binds,Ruby-Gamma-tubulin (from UniProt P23258 1-451)
2,binds,myc-BirA*-Cep152 (from UniProt O94986 1-1710)
